Target: the molecule itself
Experiment: crystal structure

B1: lysine-methylated EphA4 ectodomain (EphA4_(ecto)), human (domain or fragment)
chain: not shown
modifications: lysine-methylated
B1: binds.
